Assay results as given in publication PMC12136788.
This is one part of the list.

T1: UNK ZnF1-3 (human, UniProt Q9C0B0 31-174)
T1 sequence: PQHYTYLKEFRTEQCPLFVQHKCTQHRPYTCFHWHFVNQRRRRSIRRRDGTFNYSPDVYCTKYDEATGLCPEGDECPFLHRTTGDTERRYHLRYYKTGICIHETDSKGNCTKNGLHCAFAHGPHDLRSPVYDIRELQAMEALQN

B1: chr7:156476592:156476593:-_ENSG00000105983_ENST00000359422|hu_hu|motif|central (ssRNA)
RNA: GGGAGUUCUACAGUCCGACGAUCUCUACAGAAGAAUGCGCUGUUCUAUAUGUCUGUAAGGAAUCUGCACUUAACUGGAAACGGCAGGGUCCAUCAGAAAGUUAAAUUUAAAAAAGAUCAGCCAUAGCCAAGUUCUUCGUAGAUCAACAGAGGAUUGAGCAUCA
B2: 73995968_73997693_220_CDS_ENSMUSG00000074247_ENSMUST00000124745|mouse|control|control (ssRNA)
RNA: GGGAGUUCUACAGUCCGACGAUCCGUCUUUUCUGUCACAAUGAUCUGUUCUGACGGGUACUCUCGGGUCGGCAGGUAUACUGAGGGACGGCGGUUCGAGGCCUUGCACACAGAGUCCGCGUGGAACCUGCUGAAGUUGCUCUUCAACAGAGGAUUGAGCAUCA
B3: chr1:180459674:180459675:+_ENSMUSG00000026494_ENSMUST00000161017|mus_hu|motif|central (ssRNA)
RNA: GGGAGUUCUACAGUCCGACGAUCGCCUCUCUUUAUUCCCAGCUACCGAAUUCAUGGUGGCUUUUCCAGAGGAGAGUAUCGGAAGGUUCCACCGACGCUACAUCCAGAAGGUCCUCCAACCCAGAAGCGUCCCCCGGCUGCAGGCAACAGAGGAUUGAGCAUCA
B4: 44573525_44588634_111_5pUTR_ENSG00000138078_ENST00000409411|human|control|control (ssRNA)
RNA: GGGAGUUCUACAGUCCGACGAUCGAUCGCAAAUUGAGAGAAUCAGUCCGGCUCUGGACACAAACCAGUGAAGGCAGGCCGGAGAACCUGAAGCUCUCAGAGGGGAGCAGGUGUCACCGCAGGCAAGUCCAGCCGAAGUCUGCGCAACAGAGGAUUGAGCAUCA
B5: chr4:48381769:48381770:+_ENSG00000109171_ENST00000512093|hu_hu|motif|central (ssRNA)
RNA: GGGAGUUCUACAGUCCGACGAUCCUUAUAAUUGGAUCCAAUUGAAUCUUCAUCUAAUUCUGAAGCACUUAACUCACGGUCGGUAGAGGACUGAGGACUGAGUGGAGGAUUUCUGUCUGAGCUUUUCAAGUUACCUGAAUUUCCCAACAGAGGAUUGAGCAUCA
B6: chr3:20017139:20017140:+_ENSG00000144566_ENST00000273047|hu_hu|FALSE|FALSE (ssRNA)
RNA: GGGAGUUCUACAGUCCGACGAUCGAUAUCAUAUACAACUAUGGCUGCUUGUGCUCCUCUGUAGUACAUUGGUGCUAGGCUAUGGUAUCGUUCUUGACCAGCUGUAUCCCAUAUUUCAAACUUUACUGUAGUGUCAUCAAGACACAACAGAGGAUUGAGCAUCA
B7: chr11:87794976:87794977:-_ENSMUSG00000020483_ENSMUST00000020775|perfect_dup|FALSE|FALSE (ssRNA)
RNA: GGGAGUUCUACAGUCCGACGAUCGCAACGCCGCCUGCUUGCCAUCGCUGCCGCCGCCACUGACACCUUCACCAUGGCCACCUAGCCUGACUUGAAGAGGAGGAUUGCAACUUGACCCAAGUAAAAAUAGAUGAAGUGCUUUGUCAACAGAGGAUUGAGCAUCA
B8: chr14:78894897:78894898:-_ENSMUSG00000022016_ENSMUST00000123853|mus_mus|FALSE|FALSE (ssRNA)
RNA: GGGAGUUCUACAGUCCGACGAUCAUUUAAUGUUAAUAGUGGUUUUCUAACUAAGAAAACACUAAAGUAAAAGAAUAAACUAGUGGGAAGGUUAAAGUUUAUCCUCUCACGCACGCGCACACACACACACACACACAUUCUCUCCAACAGAGGAUUGAGCAUCA
B9: chr2:61711136:61711137:-_ENSG00000082898_ENST00000401558|hu_hu|FALSE|FALSE (ssRNA)
RNA: GGGAGUUCUACAGUCCGACGAUCGACAUUCCUCAUAGUAUGUUUGAAAGCCCAAAUGAUGGAAUCCAAAACAAGUUUAAACUGUGUAGGUGGAAUAGCAAGGAAUGCUGGGAAACAAUGAGAAUUGACAGCCUGAAGUAGUAACAACAGAGGAUUGAGCAUCA
B10: chr12:39756943:39756944:-_ENSG00000139116_ENST00000544797|hu_mus|hu_hu_hu_mus_False|38_108 (ssRNA)
RNA: GGGAGUUCUACAGUCCGACGAUCGGUUUGGCUAUUACCCCCAAGGGAAUCCUGCAAGAGUCUUGUCAGCUUAGAGUCUCUGUAAGGGACAUGGGUGGCCCUCUUGCUCUUGUCCCCCAAGGCGCUGAUUACAUUCCCAAGAGCCAACAGAGGAUUGAGCAUCA
B11: chr14:89307221:89307222:+_ENSG00000165533_ENST00000346301|hu_mus|hu_hu_hu_mus_False|18_108 (ssRNA)
RNA: GGGAGUUCUACAGUCCGACGAUCUCCUGUCUGAUUAGUGCCAGGGAGCUUCAAAGAUGUGCCAGGGCGUGGGACCUGAGCAAUAGCAUUUUCAUCCAGGAUCAUUUCAGCAAUUCCUUCCUGAUCUACAUCAAUUUCAUCUAUCAACAGAGGAUUGAGCAUCA
B12: chr11:29608675:29608676:+_ENSMUSG00000020458_ENSMUST00000102843|mus_mus|FALSE|FALSE (ssRNA)
RNA: GGGAGUUCUACAGUCCGACGAUCCUCUGUAUCAGAAGGAAGUUUUUCCUCUGCUUCUUUCGUAAGUACUUUGGGUUUAACUAUGUUGCCCAUUUCUAUUUGAGAUUCCAAAGCAGAAACAUUUGGAAGCAAUAAGGGCACCUUCAACAGAGGAUUGAGCAUCA
B13: chr3:65185704:65185705:-_ENSMUSG00000027828_ENSMUST00000029414|mus_hu|FALSE|FALSE (ssRNA)
RNA: GGGAGUUCUACAGUCCGACGAUCAUUUUUUUCCUUUUAAUAAACGUCCUAGUACUCUGAGUUUCCCUUUCAAUUCAUUUAAUUUCAACAAUCUGUCAAAAAACAGCCAAUAAACAAAUACUGAAUUACAUUCUGCUGGGUUUUCAACAGAGGAUUGAGCAUCA
B14: chr2:148701126:148701127:-_ENSMUSG00000027447_ENSMUST00000028938|mus_mus|motif|central (ssRNA)
RNA: GGGAGUUCUACAGUCCGACGAUCCUAGGACAAAGGGAUAAAGCUCCAACAAGACUCUGAGUUGGUGCAGAACAGACGCUGCGGCUCCGUGCGACUUUUACCCAAAUGCGAGCGUUAGGGACCCGCCCGCCUCUCCUGGCUCCUCAACAGAGGAUUGAGCAUCA
B15: chr7:141445308:141445309:+_ENSG00000106028_ENST00000265304|hu_hu|hu_hu_hu_mus_False|38_38 (ssRNA)
RNA: GGGAGUUCUACAGUCCGACGAUCUAUGAUUGUUGUUGCUUGCCGCCUCACAUUGUUUUUAUCCAUGUACUCGCCAUAGUCCACUUUCCCUUCCACAUAAAUUCGAGCCCCCUUUUUCACAUACUGAUAUGCCACAUCUCUGAGCAACAGAGGAUUGAGCAUCA
B16: chr2:202488911:202488912:-_ENSG00000155755_ENST00000286196|hu_mus|hu_hu_hu_mus_False|88_98 (ssRNA)
RNA: GGGAGUUCUACAGUCCGACGAUCAUUGAAACAUUUUCAUAAUAUUGAGAGAUGUUUUCAGCAUUAUGUAACAAAAGCUCAAUUGUAAAUACAUGUAUCUUAUAAAAAUACACUUAAAAACACGAGUGGGGAGCGCAGGCGCCACAACAGAGGAUUGAGCAUCA
B17: chr1:39494564:39494565:+_ENSG00000168653_ENST00000372967|hu_hu|hu_hu_hu_mus_True|28_38 (ssRNA)
RNA: GGGAGUUCUACAGUCCGACGAUCAUGCAUUCGCCUCAUCGUUUUGUACCGAAGCAAGCACUCUUCGAAGUCAUCGAACUCUAUCUUGCACUCCUUUUCUGCCCGAGUAUAACCGAUCCCGUGUGCACACUCUAUCCACUCUUUCAACAGAGGAUUGAGCAUCA
B18: chr13:13598695:13598696:+_ENSMUSG00000005397_ENSMUST00000005532|mus_mus|motif|central (ssRNA)
RNA: GGGAGUUCUACAGUCCGACGAUCCACCAAACCCGUGUCAAACAGCACUCGGCGCUGGGUGCCAUCCAUCUUUGCAACUUCGGUUCGAUCCAACUGAGAGUCCGUCCAGAAGAUGGUUCGACCAAGAUGGUCAAGGGCAAUGCCCAACAGAGGAUUGAGCAUCA
B19: 37438653_37438773_3022_3pUTR_ENSMUSG00000026915_ENSMUST00000028279|mouse|control|control (ssRNA)
RNA: GGGAGUUCUACAGUCCGACGAUCGAAGGCCACAAGAACAAAAGAGGGUGAUUGAUUAAUUUAUUUUUUUAACUUGGAAAUUCGUAAACUAAAAUAAUCACAAUCCUCCUUCCCCAUCUUUGGAUGGUGCCAUCAUUUUAAUAACAACAGAGGAUUGAGCAUCA
B20: chr15:79189513:79189514:+_ENSG00000185787_ENST00000426013|hu_mus|FALSE|FALSE (ssRNA)
RNA: GGGAGUUCUACAGUCCGACGAUCCUCCUUUUAUUUUCUCUGUUUAAAAUCAAAGAGGAAACAAACAACUCUGUUAUACACUAACGGUCUUCAAAGUACAUCAUUUGUACAAGAGAAGGACUAAGAACCAAACUGUUUACAGAGCAACAGAGGAUUGAGCAUCA
B21: chr6:38652254:38652255:-_ENSG00000124767_ENST00000373365|hu_hu|hu_hu_hu_mus_False|58_58 (ssRNA)
RNA: GGGAGUUCUACAGUCCGACGAUCCGAGAACUUCAUAGCAGGGAAGUCAAGCUUCUGCAGGAGGGUCAGUCCAAGAACUCUAGUAUAAAAAUCCAGGGACUUCUUAGGAUCCUUAAUUCUUAGCAUCGUUUGCUGCAGUAGAAACAACAGAGGAUUGAGCAUCA
B22: chr7:87731985:87731986:-_ENSMUSG00000030527_ENSMUST00000122255|mus_mus|FALSE|FALSE (ssRNA)
RNA: GGGAGUUCUACAGUCCGACGAUCUGAAGAGAGGUCUGGGGAAGCCGGUAGCCACUUCAAUGCUGCCGCCUAAGACAGGCUAGUCACAAAGGCAGCAUCGAGUGCAGGCUCACACGACUGCAGCAGGGCAACGCAGUCUCCUGCCAACAGAGGAUUGAGCAUCA

These binders were tested against T1, UNK ZnF1-3 (assay: nsRBNS (natural sequence RNA bind-n-seq); RBNS binding buffer (assumed for nsRBNS): 25 mM Tris pH 7.5, 150 mM KCl, 3 mM MgCl2, 0.01% Triton X-100, 500 ug/ml BSA, 20 U/ml SUPERase-In, 4 C; UNK is unkempt and MSI1 is Musashi-1; names of the RNAs are library labels; protein concentration not given here; high values mean tight binding).

Row | Binder | binding signal [enrichment R]
1 | B1 | 1.71
2 | B2 | 0.792
3 | B3 | 1.1
4 | B4 | 0.744
5 | B5 | 1.57
6 | B6 | 0.936
7 | B7 | 1.94
8 | B8 | 1.09
9 | B9 | 1.25
10 | B10 | 0.723
11 | B11 | 0.819
12 | B12 | 0.74
13 | B13 | 1.07
14 | B14 | 1.11
15 | B15 | 0.596
16 | B16 | 0.63
17 | B17 | 0.788
18 | B18 | 0.925
19 | B19 | 2.12
20 | B20 | 1.19
21 | B21 | 1.16
22 | B22 | 0.745
